# Experimental data as given in the BET-seq Pho4 binding data (Le et al. 2018).
# The list shows a part of the results. The energies were worked out here from pooled read counts, against the library average; single values are noisy.
# Target: T1, Pho4 (S. cerevisiae) (UniProt P07270)
# T1 sequence: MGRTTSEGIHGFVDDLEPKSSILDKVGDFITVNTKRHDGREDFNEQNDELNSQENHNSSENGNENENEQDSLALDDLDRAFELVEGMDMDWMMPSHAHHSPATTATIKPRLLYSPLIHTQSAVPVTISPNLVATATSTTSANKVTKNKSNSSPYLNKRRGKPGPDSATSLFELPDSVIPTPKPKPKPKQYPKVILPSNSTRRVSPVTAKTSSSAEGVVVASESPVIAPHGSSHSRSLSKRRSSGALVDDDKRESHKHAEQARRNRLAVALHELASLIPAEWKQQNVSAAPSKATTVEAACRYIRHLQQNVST
# Experiment: relative binding free energy (BET-seq); higher = weaker binding
# Conditions: reference: library average
row,Sequence,relative binding free energy [kcal/mol]
1,CTCTTCACGTGGTGTG,0.23
2,GGGCTCACGTGAGCTG,0.44
3,TACGGCACGTGATTGT,0.15
4,ACTGTCACGTGGCTGT,0.12
5,GGAGCCACGTGTGGTT,0.11
6,GTGGTCACGTGACGGT,0.14
7,CATGACACGTGTAGGG,0.03
8,GCTGTCACGTGGTTTT,0.14
9,TGGAACACGTGGGGGC,-0.12
10,AGTTTCACGTGTGGTC,0.36
11,TAGGTCACGTGGTTCA,0.02
12,TTATTCACGTGACGGT,0.26
13,TTTATCACGTGTTTCT,0.08
14,TGCGACACGTGTAGGT,0.06
15,GTTATCACGTGTTGCT,0.09
16,ACAGTCACGTGGGGCT,0.05
17,AGTCCCACGTGTGGTG,-0.07
18,TTTAGCACGTGGGTAA,-0.23
19,ACGGACACGTGGTGGA,-0.04
20,CGAGGCACGTGTGAGA,-0.05
21,TGGTTCACGTGGTTTT,0.22
22,GTAGTCACGTGATAAG,0.2
23,CGATGCACGTGGTGTA,-0.15
24,TGGAGCACGTGGCATT,-0.22
25,TAAGTCACGTGAGCGG,0.14
26,TGCGGCACGTGTTATT,-0.09

row,Sequence,relative binding free energy [kcal/mol]
1,GTGTACACGTGGCTTG,0.08
2,TCGTTCACGTGCCGGG,0.41
3,TATAGCACGTGGGCTT,-0.18
4,TTAAACACGTGAAGTA,0.29
5,ATTTGCACGTGGTGTT,-0.09
6,CGGGTCACGTGCGGCT,0.04
7,GGGTGCACGTGCATTT,0.02
8,GATGGCACGTGTTGGA,0.02
9,GGTTTCACGTGGTCTA,0.4
10,TGTGTCACGTGTGAGT,0.16
11,TGGAGCACGTGAAAGT,0.24
12,GCATTCACGTGTTTTG,0.22
13,GAGATCACGTGTGGAT,0.42
14,GGTTCCACGTGGGATG,0.04
15,ATGTGCACGTGAGCGG,0
16,TGGGACACGTGTTACG,0.1
17,TAATGCACGTGGGTCG,-0.21
18,CGTGACACGTGATGTT,0.04
19,CGGGACACGTGGGGCA,-0.2
20,AGGTTCACGTGTGTAC,0.31
21,ATTTTCACGTGATTTT,0.33
22,TTTAGCACGTGAAGTG,0.15
23,ATGGTCACGTGTCTAA,0.18
24,AGGTGCACGTGCTCGG,-0.11
25,GGACTCACGTGGTATG,0.2
26,GGAGACACGTGGTGAT,-0.02

row,Sequence,relative binding free energy [kcal/mol]
1,TGCGGCACGTGGTGAG,-0.07
2,AAGGACACGTGGGGAA,-0.03
3,GGGGCCACGTGCGGAG,-0.24
4,CGTGCCACGTGGGATG,-0.13
5,GGTAGCACGTGGTTCA,0
6,GTATCCACGTGTGTGG,-0.08
7,AATCTCACGTGGGGAG,0.22
8,GATTGCACGTGGACGA,0.29
9,TGAAACACGTGGTGTG,-0.19
10,GTTGTCACGTGTCTAG,0.17
11,TGGAGCACGTGTTGGT,-0.08
12,TTGTTCACGTGGATTC,0.26
13,GTGTTCACGTGCGCAG,0.14
14,TCATACACGTGGGAGT,-0.08
15,TTGTTCACGTGGCATA,0.07
16,CGTATCACGTGAGATT,0.26
17,GTACTCACGTGTATTT,0.3
18,ATGGGCACGTGTAACG,-0.11
19,GGGGACACGTGAGATG,0.36
20,ATTGGCACGTGTATGC,-0.04
21,TTGTGCACGTGGTTAC,-0.22
22,TGCGGCACGTGATGGA,0.07
23,GGGGTCACGTGCGGCA,0.01
24,GTAGGCACGTGGATTG,0.09
25,AGGATCACGTGCTGTT,0.13
26,TTGGGCACGTGTCCGT,-0.03

row,Sequence,relative binding free energy [kcal/mol]
1,TCTGTCACGTGGGGAA,-0.18
2,TGGTACACGTGTCGGA,0.14
3,ACAGGCACGTGAAGGG,0.16
4,GAAGTCACGTGGGGTC,0.17
5,AACAGCACGTGTTTTG,0.05
6,TTGGTCACGTGTTGGC,0.34
7,GTTTACACGTGCGGTA,0.17
8,CTTTTCACGTGATAGA,0.35
9,CGAGGCACGTGGGATG,-0.15
10,ATGGGCACGTGTCGGG,-0.03
11,TGGTACACGTGTGAAA,0.12
12,TGGTGCACGTGCGGAA,0.04
13,AAGTACACGTGGAGTT,0.08
14,TTCGCCACGTGGAGTG,-0.03
15,GGTGTCACGTGGTGGG,0.08
16,TAGCGCACGTGGGGTG,-0.33
17,TGTTCCACGTGCAGGT,0.12
18,TAGGACACGTGTTAGG,0.03
19,GGTTTCACGTGCAGCG,0.17
20,CTGTGCACGTGGTTAT,-0.22
21,AAGGTCACGTGGGGAA,0.06
22,ACATTCACGTGGTGTG,0.18
23,ATTTTCACGTGTGGGT,0.3
24,TGTTTCACGTGCAATT,0.36
25,GTGCTCACGTGGGAGG,0.25
26,ATATTCACGTGAAGAT,0.27

row,Sequence,relative binding free energy [kcal/mol]
1,ACTGGCACGTGGGGAT,-0.19
2,CATGGCACGTGGAGGT,-0.03
3,TTTGTCACGTGCTAAG,0.14
4,GTTTTCACGTGTTGTT,0.4
5,AATCTCACGTGTTGGT,0.16
6,AGTCTCACGTGGATGG,0.13
7,TCTGGCACGTGGGATG,-0.1
8,AGAGGCACGTGAGGGC,0.21
9,GGGTTCACGTGTGAGA,0.39
10,ATGGTCACGTGATATC,0.33
11,ATGTACACGTGAGTTA,0.25
12,AATGACACGTGTCTTT,0.16
13,GACTGCACGTGGTGAG,-0.02
14,TTAGTCACGTGACGCG,0.22
15,GTGTTCACGTGTATCT,0.18
16,CGGCGCACGTGTGTGG,-0.16
17,GTTGGCACGTGTATAG,-0.06
18,AGGGCCACGTGGGCTA,-0.13
19,GGGAGCACGTGAGATA,0.19
20,TGTTACACGTGGAAGT,0.15
21,GATGCCACGTGGGGGA,-0.11
22,TATAGCACGTGATTGC,0.16
23,TATTGCACGTGCGCGG,-0.24
24,GGCTTCACGTGTCAGG,0.41
25,AAGTACACGTGGAGTG,-0.02
26,GCTTGCACGTGTGGAG,0.18

row,Sequence,relative binding free energy [kcal/mol]
1,AGGCGCACGTGTGGGA,0.03
2,TGGAACACGTGGGATA,0.03
3,TCTTACACGTGGGTTA,0.04
4,GGTGGCACGTGTTAAT,0.03
5,TGTTTCACGTGCGGGC,0.24
6,TGGTTCACGTGGAGCA,0.33
7,TTAGGCACGTGCAGAT,-0.1
8,CATTTCACGTGGGTAG,0.16
9,GTCGTCACGTGGGCGA,0.04
10,TTGTACACGTGGATAT,0.15
11,AAAGACACGTGTGGTA,0.09
12,GGTTACACGTGCGTTA,0.14
13,TTGGGCACGTGTTGTT,-0.12
14,TTGAGCACGTGAGGTA,0.13
15,AATGTCACGTGTGCTA,0.12
16,CTTGGCACGTGTGTGA,-0.18
17,TCCATCACGTGGTTGG,0.21
18,TTGTACACGTGAATTT,0.32
19,AATTTCACGTGGATGG,0.21
20,CTGTTCACGTGTACTG,0.28
21,TGTGGCACGTGAATGG,0.17
22,GTGTGCACGTGGACAA,0.07
23,CGTCTCACGTGTTGTG,0.04
24,AGGTTCACGTGTGATG,0.46
25,TAGTTCACGTGATAAA,0.4
26,GGATGCACGTGTTTCA,0.03

row,Sequence,relative binding free energy [kcal/mol]
1,TAGTACACGTGCGTGG,0
2,GGTTGCACGTGATTCG,0.25
3,TTTATCACGTGGAATT,0.24
4,TCGGGCACGTGGGTAA,-0.21
5,AGTGTCACGTGCCTTT,0.04
6,TACTGCACGTGTGGGA,0.05
7,CTGAGCACGTGTAATA,0.18
8,TGTTTCACGTGAATTG,0.4
9,TGTTACACGTGAGATT,0.35
10,ATGTACACGTGGATAT,0
11,ACAGACACGTGGGTGG,-0.25
12,GCGGGCACGTGATGTA,-0.05
13,AGTTCCACGTGGATTA,0.28
14,TCTGTCACGTGGGAGT,-0.08
15,TTCTGCACGTGATTTG,0.16
16,GATAGCACGTGTAGTA,0.09
17,AGTTTCACGTGGCGGG,0.16
18,TGTTGCACGTGGGTCT,-0.12
19,CGGGTCACGTGACAGG,0.1
20,GGGTGCACGTGTTTTA,0.13
21,GTTATCACGTGAAGTC,0.41
22,TTTGCCACGTGGCGGG,-0.36
23,GATCGCACGTGGAGTT,0.09
24,GGTTTCACGTGATGGT,0.41
25,GCATTCACGTGATTGG,0.25
26,GAGTGCACGTGTTTTC,0.12

row,Sequence,relative binding free energy [kcal/mol]
1,TGGTGCACGTGAAGAT,0.2
2,TCATGCACGTGTTATG,0.06
3,TAGGGCACGTGAAGAT,0.15
4,GGGGACACGTGATACG,0.19
5,TGTAGCACGTGAAGAA,0.26
6,GGGTACACGTGGGTTT,-0.04
7,ACATACACGTGTAGGG,0
8,TGATCCACGTGTGGTT,0.16
9,TAATTCACGTGTTGCG,0.28
10,CGGGTCACGTGGACTG,0.19
11,GTTCACACGTGGGCGT,-0.04
12,TTGTCCACGTGGTCTT,-0.06
13,AATTTCACGTGCTGGA,0.28
14,GCCTGCACGTGTGGGG,0.07
15,TTTGTCACGTGTAGTT,0.23
16,AGTTTCACGTGATATC,0.22
17,TGTGGCACGTGGGGCA,-0.25
18,ATTGACACGTGTCGTT,-0.04
19,AATTTCACGTGCGGGT,0.22
20,GCAATCACGTGGGGGG,0.02
21,ATAAGCACGTGGGGGC,-0.34
22,TTTGACACGTGGGTAG,0
23,TGCGGCACGTGTTTCG,-0.02
24,TAATGCACGTGTTCGT,-0.03
25,CAAAGCACGTGAGTGT,0.16
26,CGTGGCACGTGTGGTC,-0.05

row,Sequence,relative binding free energy [kcal/mol]
1,TTACGCACGTGTATTT,-0.17
2,TGATACACGTGGTGGA,0.05
3,ATTGTCACGTGAAGCT,0.25
4,AATGGCACGTGGGAAT,-0.11
5,ATTTTCACGTGGTGAG,0.3
6,AGTTTCACGTGGAATG,0.28
7,TTTTTCACGTGTAAAC,0.44
8,AGGTTCACGTGCATTT,0.18
9,TTTGACACGTGTGGTT,0.07
10,TTAGTCACGTGTCGGG,0.16
11,ATGAGCACGTGCTTGT,-0.19
12,GCGTTCACGTGGATAG,0.29
13,GTTCTCACGTGTAATT,0.32
14,TGGGTCACGTGTGCTT,0.12
15,CATGGCACGTGTGGGA,0.01
16,TTATGCACGTGGTCAT,-0.2
17,TATAACACGTGAATGT,0.15
18,GTAGTCACGTGTGCTC,0.33
19,GGCACCACGTGGGGTT,-0.07
20,TATGACACGTGGGAAT,-0.12
21,GGAGACACGTGACTTT,0.35
22,GGGGTCACGTGATAAC,0.44
